Laboratory results published in the supplement of paper PMC4967469.
A lower IC50 marks a more sensitive line; fits outside the tested doses are given as limits. AUC sums up the same curve from the lowest dose to the 256-fold higher top dose: 1 means no effect, lower means more sensitive. For some assays here: An inferred top dose is not printed in the source and was worked back from the curve model. For some assays here: An entry number marks a drug with two screens in the source, which often give different values.

Legend:
Assay in all cases: Viability of human cancer cell lines after 72 h of drug (GDSC screen)
Tamoxifen = compound: CC/C(=C(\c1ccccc1)c1ccc(OCCN(C)C)cc1)c1ccccc1 [Tamoxifen]; conditions: top dose 5 µM
Protocol: (§1)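 Human cancer cell lines in 384-well plates, medium with 10% serum, drug for 72 h over a 256-fold dose range (nine 2-fold or five 4-fold steps up to the top dose). Adherent lines were fixed and stained with the nucleic acid dye Syto60, suspension lines read with resazurin; signal relative to control wells, capped at 0 and 100%. One two-parameter sigmoid per drug and line, fitted in a mixed model over all curves with the slope shared within a line.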

VNLG/124 = compound: CCCC(=O)OCc1ccc(OC(=O)/C=C(C)/C=C/C=C(C)/C=C/C2=C(C)CCCC2(C)C)cc1 [VNLG/124]; conditions: top dose 5.12 µM; top dose inferred
Protocol: as §1

Elesclomol = compound: CN(NC(=O)CC(=O)NN(C)C(=S)c1ccccc1)C(=S)c1ccccc1 [Elesclomol]; conditions: top dose 0.2 µM; top dose inferred
Protocol: as §1

HG-5-88-01 = compound: COc1cc(N2CCC(C(N)=O)CC2)ccc1Nc1nc(N)c(Cl)c(Nc2ccccc2S(=O)(=O)C(C)C)n1 [HG-5-88-01]; conditions: top dose 10 µM; top dose inferred
Protocol: as §1

Bleomycin = compound: Cc1c(N)nc([C@H](CC(N)=O)NC[C@H](N)C(N)=O)nc1C(=O)N[C@H](C(=O)N[C@H](C)[C@@H](O)[C@H](C)C(=O)N[C@H](C(=O)NCCc1nc(-c2nc(C(=O)NCCC[S+](C)C)cs2)cs1)[C@@H](C)O)[C@@H](OC1OC(CO)C(O)C(O)C1OC1OC(CO)C(O)C(OC(N)=O)C1O)c1cnc[nH]1 [Bleomycin]; conditions: top dose 50 µM; screen: GDSC drug entry 1378; top dose inferred
Protocol: as §1

Masitinib = compound: Cc1ccc(NC(=O)c2ccc(CN3CCN(C)CC3)cc2)cc1Nc1nc(-c2cccnc2)cs1 [Masitinib]; conditions: top dose 20 µM
Protocol: as §1

OSI-930 = compound: O=C(Nc1ccc(OC(F)(F)F)cc1)c1sccc1NCc1ccnc2ccccc12 [OSI-930]; conditions: top dose 10.24 µM
Protocol: as §1

BX-912 = compound: O=C(Nc1cccc(Nc2ncc(Br)c(NCCc3cnc[nH]3)n2)c1)N1CCCC1 [BX-912]; conditions: top dose 10.24 µM; top dose inferred
Protocol: as §1

Row | Cell Line | AUC (Tamoxifen) | IC50 (Tamoxifen) [µM] | AUC (VNLG/124) | IC50 (VNLG/124) [µM] | AUC (Elesclomol) | IC50 (Elesclomol) [µM] | AUC (HG-5-88-01) | IC50 (HG-5-88-01) [µM] | AUC (Bleomycin) | IC50 (Bleomycin) [µM] | AUC (Masitinib) | IC50 (Masitinib) [µM] | AUC (OSI-930) | IC50 (OSI-930) [µM] | AUC (BX-912) | IC50 (BX-912) [µM]
1 | CADO-ES1 (Ewing sarcoma, suspension) | 0.984 | > 5 | 0.943 | > 5.12 | 0.608 | 0.025 | 0.979 | > 10 | 0.661 | 8.83 | 0.901 | > 20 | 0.987 | > 10.2 | 0.951 | > 10.2
2 | D-423MG (glioma, adherent) | 0.978 | > 5 | 0.968 | > 5.12 | 0.525 | 0.0149 | 0.886 | > 10 | 0.184 | 0.273 | 0.875 | > 20 | 0.963 | > 10.2 | 0.778 | 5.1
3 | D-566MG (glioma, adherent) | 0.959 | > 5 | 0.984 | > 5.12 | 0.524 | 0.0146 | 0.937 | > 10 | 0.548 | 4.22 | 0.873 | 18.7 | 0.972 | > 10.2 | 0.803 | 4.98
4 | DOV13 (ovary, adherent) | 0.925 | > 5 | 0.977 | > 5.12 | 0.271 | 0.00249 | 0.866 | > 10 | 0.51 | 3.35 | 0.962 | > 20 | 0.972 | > 10.2 | 0.978 | > 10.2
5 | EMC-BAC-1 (lung adenocarcinoma, adherent) | 0.982 | > 5 | 0.946 | > 5.12 | 0.519 | 0.0142 | 0.718 | 2.86 | 0.662 | 9.44 | 0.879 | > 20 | 0.955 | > 10.2 | 0.665 | 1.98
6 | EMC-BAC-2 (lung adenocarcinoma, adherent) | 0.963 | > 5 | 0.981 | > 5.12 | 0.458 | 0.00939 | 0.909 | > 10 | 0.55 | 4.38 | 0.922 | > 20 | 0.982 | > 10.2 | 0.764 | 4.4
7 | ESO26 (oesophagus, adherent) | 0.961 | > 5 | 0.989 | > 5.12 | 0.48 | 0.0111 | 0.957 | > 10 | 0.653 | 8.05 | 0.879 | 18.5 | 0.989 | > 10.2 | 0.811 | 5.07
8 | ESO51 (oesophagus, semi-adherent) | 0.962 | > 5 | 0.98 | > 5.12 | 0.843 | > 0.2 | 0.974 | > 10 | 0.849 | > 50 | 0.886 | > 20 | 0.967 | > 10.2 | 0.963 | > 10.2
9 | FLO-1 (oesophagus, adherent) | 0.971 | > 5 | 0.975 | > 5.12 | 0.426 | 0.00716 | 0.927 | > 10 | 0.34 | 0.915 | 0.942 | > 20 | 0.973 | > 10.2 | 0.836 | > 10.2
10 | HCC-366 (non-small cell lung carcinoma, adherent) | 0.979 | > 5 |  |  | 0.551 | 0.0173 | 0.945 | > 10 | 0.277 | 0.708 |  |  |  |  |  | 
11 | Hey (ovary, adherent) | 0.986 | > 5 | 0.987 | > 5.12 | 0.311 | 0.00382 | 0.964 | > 10 | 0.158 | 0.303 | 0.863 | 15.7 | 0.981 | > 10.2 | 0.893 | > 10.2
12 | JHOS-2 (ovary, adherent) | 0.98 | > 5 | 0.983 | > 5.12 | 0.326 | 0.00375 | 0.952 | > 10 | 0.417 | 1.78 | 0.938 | > 20 | 0.97 | > 10.2 | 0.947 | > 10.2
13 | JHOS-3 (ovary, adherent) | 0.981 | > 5 | 0.959 | > 5.12 | 0.893 | > 0.2 | 0.844 | > 10 | 0.865 | > 50 | 0.965 | > 20 | 0.983 | > 10.2 | 0.976 | > 10.2
14 | KATOIII (stomach, semi-adherent) | 0.974 | > 5 |  |  | 0.795 | 0.0844 | 0.988 | > 10 | 0.97 | > 50 |  |  |  |  |  | 
15 | KYAE-1 (oesophagus, suspension) | 0.937 | > 5 | 0.955 | > 5.12 | 0.888 | > 0.2 | 0.883 | > 10 | 0.953 | > 50 | 0.819 | 13 | 0.979 | > 10.2 | 0.952 | > 10.2
16 | MKN7 (stomach, adherent) | 0.969 | > 5 |  |  | 0.765 | 0.0991 | 0.976 | > 10 | 0.853 | > 50 |  |  |  |  |  | 
17 | NCC010 (kidney, adherent) | 0.968 | > 5 |  |  | 0.63 | 0.0293 | 0.955 | > 10 | 0.871 | > 50 |  |  |  |  |  | 

Row | Cell Line | AUC (Tamoxifen) | IC50 (Tamoxifen) [µM] | AUC (VNLG/124) | IC50 (VNLG/124) [µM] | AUC (Elesclomol) | IC50 (Elesclomol) [µM] | AUC (HG-5-88-01) | IC50 (HG-5-88-01) [µM] | AUC (Bleomycin) | IC50 (Bleomycin) [µM] | AUC (Masitinib) | IC50 (Masitinib) [µM] | AUC (OSI-930) | IC50 (OSI-930) [µM] | AUC (BX-912) | IC50 (BX-912) [µM]
18 | NCC021 (kidney, adherent) | 0.981 | > 5 | 0.984 | > 5.12 | 0.811 | 0.128 | 0.943 | > 10 | 0.493 | 2.99 | 0.888 | > 20 | 0.974 | > 10.2 | 0.962 | > 10.2
19 | NCI-H508 (large intestine, semi-adherent) | 0.936 | > 5 |  |  | 0.951 | > 0.2 | 0.836 | > 10 | 0.9 | > 50 |  |  |  |  |  | 
20 | NCI-H929 (myeloma, suspension) | 0.981 | > 5 |  |  | 0.538 | 0.0156 | 0.422 | 0.396 | 0.837 | 26.7 |  |  |  |  |  | 
21 | NCI-N87 (stomach, adherent) | 0.969 | > 5 |  |  | 0.826 | > 0.2 | 0.894 | > 10 | 0.843 | > 50 |  |  |  |  |  | 
22 | OACp4C (oesophagus, adherent) | 0.973 | > 5 | 0.949 | > 5.12 | 0.474 | 0.0105 | 0.778 | 4.9 | 0.792 | 27.8 | 0.887 | > 20 | 0.982 | > 10.2 | 0.669 | 2.1
23 | OC-314 (ovary, adherent) | 0.987 | > 5 | 0.991 | > 5.12 | 0.931 | > 0.2 | 0.985 | > 10 | 0.186 | 0.435 | 0.884 | 16.3 | 0.987 | > 10.2 | 0.963 | > 10.2
24 | OCI-LY7 (B-cell lymphoma, suspension) | 0.997 | > 5 |  |  | 0.425 | 0.00824 | 0.996 | > 10 | 0.975 | > 50 |  |  |  |  |  | 
25 | OV-17R (ovary, adherent) | 0.978 | > 5 | 0.98 | > 5.12 | 0.401 | 0.00598 | 0.961 | > 10 | 0.642 | 9.09 | 0.796 | 14 | 0.957 | > 10.2 | 0.922 | > 10.2
26 | OV-56 (ovary, adherent) | 0.977 | > 5 | 0.987 | > 5.12 | 0.543 | 0.0163 | 0.975 | > 10 | 0.449 | 2.28 | 0.884 | > 20 | 0.98 | > 10.2 | 0.964 | > 10.2
27 | OVCA420 (ovary, adherent) | 0.913 | > 5 | 0.974 | > 5.12 | 0.647 | 0.0366 | 0.963 | > 10 | 0.69 | 12.8 | 0.974 | > 20 | 0.979 | > 10.2 | 0.981 | > 10.2
28 | OVCA433 (ovary, adherent) | 0.97 | > 5 | 0.983 | > 5.12 | 0.455 | 0.00928 | 0.938 | > 10 | 0.55 | 4.35 | 0.953 | > 20 | 0.977 | > 10.2 | 0.924 | > 10.2
29 | OVK-18 (ovary, adherent) | 0.968 | > 5 | 0.982 | > 5.12 | 0.598 | 0.024 | 0.977 | > 10 | 0.637 | 7.82 | 0.911 | > 20 | 0.905 | > 10.2 | 0.932 | > 10.2
30 | PEO1 (ovary, adherent) | 0.964 | > 5 | 0.982 | > 5.12 | 0.506 | 0.013 | 0.892 | > 10 | 0.362 | 1.28 | 0.956 | > 20 | 0.982 | > 10.2 | 0.886 | > 10.2
31 | PWR-1E (prostate, adherent) | 0.986 | > 5 |  |  | 0.41 | 0.00709 | 0.919 | > 10 | 0.26 | 0.647 |  |  |  |  |  | 
32 | SK-GT-2 (stomach, adherent) | 0.984 | > 5 |  |  | 0.529 | 0.0151 | 0.932 | > 10 | 0.756 | 18 |  |  |  |  |  | 
33 | VMRC-LCD (lung adenocarcinoma, adherent) | 0.986 | > 5 |  |  | 0.668 | 0.0336 | 0.988 | > 10 | 0.886 | 39.6 |  |  |  |  |  | 
